{"source": "the supplement of paper PMC12645437", "about": "“Orthogonal IMiD-Degron Pairs Induce Selective Protein Degradation in Cells” (ACS Chemical Biology, 2025)", "sequences": {"B1": {"name": "Q9UKT9 (peptide)", "chain": "FNCSVCGHIFTQKGNLLRHIKL"}, "B2": {"name": "Q9UKT9 (peptide)", "chain": "FMCDVCGASFTQKGNLLRHIKL"}, "B3": {"name": "Q9UKT9 (peptide)", "chain": "FYCNQCGRTFTQKGNLLRHIKL"}, "B4": {"name": "Q9UKT9 (peptide)", "chain": "LGCEICGFRCTQKGNLLRHIKL"}, "B5": {"name": "Q9UKT9 (peptide)", "chain": "FVCPQCGATFTQKGNLLRHIKL"}, "B6": {"name": "Q9UKT9 (peptide)", "chain": "FHCPICGARFTQKGNLLRHIKL"}, "B7": {"name": "Q9UKT9 (peptide)", "chain": "FACPQCGACFTQKGNLLRHIKL"}, "B8": {"name": "Q9UKT9 (peptide)", "chain": "FQCNQCGRIFTQKGNLLRHIKL"}, "B9": {"name": "Q9UKT9 (peptide)", "chain": "LRCNQCGFNCTQKGNLLRHIKL"}, "B10": {"name": "Q9UKT9 (peptide)", "chain": "FNCEICGRHFTQKGNLLRHIKL"}, "B11": {"name": "Q9UKT9 (peptide)", "chain": "LDCPICGFLCTQKGNLLRHIKL"}, "B12": {"name": "Q9UKT9 (peptide)", "chain": "FTCEVCGANFTQKGNLLRHIKL"}, "B13": {"name": "Q9UKT9 (peptide)", "chain": "FMCPICGRKFTQKGNLLRHIKL"}, "B14": {"name": "Q9UKT9 (peptide)", "chain": "LNCPICGFICTQKGNLLRHIKL"}, "B15": {"name": "Q9UKT9 (peptide)", "chain": "FQCPICGRGFTQKGNLLRHIKL"}, "B16": {"name": "Q9UKT9 (peptide)", "chain": "FMCDICGANFTQKGNLLRHIKL"}, "B17": {"name": "Q9UKT9 (peptide)", "chain": "FQCDVCGAFFTQKGNLLRHIKL"}, "B18": {"name": "Q9UKT9 (peptide)", "chain": "FKCEQCGACFTQKGNLLRHIKL"}, "B19": {"name": "Q9UKT9 (peptide)", "chain": "FHCEICGRSFTQKGNLLRHIKL"}, "B20": {"name": "Q9UKT9 (peptide)", "chain": "LACNQCGFGCTQKGNLLRHIKL"}, "B21": {"name": "Q9UKT9 (peptide)", "chain": "FKCPICGRAFTQKGNLLRHIKL"}, "B22": {"name": "Q9UKT9 (peptide)", "chain": "FLCEICGRMFTQKGNLLRHIKL"}, "B23": {"name": "Q9UKT9 (peptide)", "chain": "LGCPICGFHCTQKGNLLRHIKL"}, "B24": {"name": "Q9UKT9 (peptide)", "chain": "LTCPICGFQCTQKGNLLRHIKL"}, "B25": {"name": "Q9UKT9 (peptide)", "chain": "FACNQCGAKFTQKGNLLRHIKL"}, "B26": {"name": "Q9UKT9 (peptide)", "chain": "FRCDICGANFTQKGNLLRHIKL"}, "B27": {"name": "Q9UKT9 (peptide)", "chain": "FVCEVCGAYFTQKGNLLRHIKL"}, "B28": {"name": "Q9UKT9 (peptide)", "chain": "FDCEICGAQFTQKGNLLRHIKL"}, "B29": {"name": "Q9UKT9 (peptide)", "chain": "FRCEICGRCFTQKGNLLRHIKL"}, "B30": {"name": "Q9UKT9 (peptide)", "chain": "FSCDQCGAMFTQKGNLLRHIKL"}, "B31": {"name": "Q9UKT9 (peptide)", "chain": "LWCPICGFNCTQKGNLLRHIKL"}, "B32": {"name": "Q9UKT9 (peptide)", "chain": "FDCNQCGHYFTQKGNLLRHIKL"}}, "note": "This is one part of the list.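 Further: jurkat cells carrying a lentiviral library of mutant zinc finger degrons fused to EGFP plus mCherry, mCherry+ cells FACS sorted, degron abundance counted by next-generation sequencing.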", "data": [{"biological_target": "no compound (DMSO)", "test": "log2 fold change of degron read counts, EGFP-low vs EGFP+ sorted cells; higher = lower degron-EGFP level without compound (poor expression or instability)", "conditions": "compound: DMSO control; 18 h", "values": [{"sequence": "B1", "log2 fold change of degron read counts": 0.862}, {"sequence": "B2", "log2 fold change of degron read counts": -2.17}, {"sequence": "B3", "log2 fold change of degron read counts": 0.154}, {"sequence": "B4", "log2 fold change of degron read counts": 0.517}, {"sequence": "B5", "log2 fold change of degron read counts": -0.703}, {"sequence": "B6", "log2 fold change of degron read counts": -1.14}, {"sequence": "B7", "log2 fold change of degron read counts": -0.896}, {"sequence": "B8", "log2 fold change of degron read counts": -0.349}, {"sequence": "B9", "log2 fold change of degron read counts": 0.704}, {"sequence": "B10", "log2 fold change of degron read counts": -0.83}, {"sequence": "B11", "log2 fold change of degron read counts": 1.79}, {"sequence": "B12", "log2 fold change of degron read counts": -2.72}, {"sequence": "B13", "log2 fold change of degron read counts": -0.956}, {"sequence": "B14", "log2 fold change of degron read counts": 1.05}, {"sequence": "B15", "log2 fold change of degron read counts": 0.455}, {"sequence": "B16", "log2 fold change of degron read counts": -1.55}, {"sequence": "B17", "log2 fold change of degron read counts": -1.39}, {"sequence": "B18", "log2 fold change of degron read counts": -1.4}, {"sequence": "B19", "log2 fold change of degron read counts": -2.49}, {"sequence": "B20", "log2 fold change of degron read counts": 0.814}, {"sequence": "B21", "log2 fold change of degron read counts": -1.45}, {"sequence": "B22", "log2 fold change of degron read counts": -0.776}, {"sequence": "B23", "log2 fold change of degron read counts": 1.22}, {"sequence": "B24", "log2 fold change of degron read counts": -0.000513}, {"sequence": "B25", "log2 fold change of degron read counts": -0.714}, {"sequence": "B26", "log2 fold change of degron read counts": -0.963}, {"sequence": "B27", "log2 fold change of degron read counts": -0.548}, {"sequence": "B28", "log2 fold change of degron read counts": -1.96}, {"sequence": "B29", "log2 fold change of degron read counts": -2.03}, {"sequence": "B30", "log2 fold change of degron read counts": -1.98}, {"sequence": "B31", "log2 fold change of degron read counts": 2.46}, {"sequence": "B32", "log2 fold change of degron read counts": 1.22}]}]}
